This is an account of results in article PMC10668032.

Some of the results follow. At the low end of the ranking the order means little.

In this experiment the target is SIX1-Q177R homeodomain (UniProt Q15475). The experiment can be described thus: universal protein binding microarray. As to conditions: Universal all-10-mer PBM (8x60K, AMADID 030236), 300 nM GST-tagged protein, Alexa Fluor 488 anti-GST; buffer, salt, pH and temperature not stated; high values mean tight binding; most listed sequences are background and not binding sites; double strand, one strand shown.
For GAGGGAAA, the binding signal was -0.272 E-score.
Consider CCCGTACA, for which the binding signal worked out at 0.128 E-score.
To CACGCTTC belongs 0.24 E-score; to GCGAATGA, -0.0837 E-score.
The same measure for ACGCTGCC: -0.011 E-score.
To AACGACCA belongs -0.149 E-score; to AACGCCGC, -0.0363 E-score; to GACTCATA, -0.137 E-score.
For the sequence AGTATAGG, the binding signal worked out at 0.0123 E-score.
The same measure for GGTCTTTA: -0.114 E-score; for GTTTGTGA: -0.0745 E-score; for CAGTGCCC: -0.0721 E-score.
To CGTTCGGC belongs -0.00579 E-score; to CCGAACGC, -0.117 E-score; to AGCGACGA, -0.0849 E-score.
The same measure for ACACCAGT: 0.48 E-score; for CAGTTGGG: -0.00456 E-score; for GGCGTCAA: 0.177 E-score.
AAATTTCA: the binding signal is -0.216 E-score.
As for AGGATAAG, the binding signal was -0.0991 E-score.
With GTTTACCA, the binding signal is -0.102 E-score.
To ACGCCGTG belongs 0.185 E-score; to GAAGGTGA, 0.0846 E-score; to AGTTCAAC, -0.0918 E-score.
The same measure for GAGTGTGC: 0.184 E-score.
The same measure for AGCAGGTA: -0.0666 E-score; for AAGTGAGC: -0.0874 E-score; for GATTTCGC: -0.154 E-score.
Turning to AGCTTCGG, the binding signal was -0.0407 E-score.
To CAACTGTA belongs -0.18 E-score; to ATGTTCGG, -0.159 E-score.
Turning to ATGGTCCG, the binding signal was -0.316 E-score.
To CTCCAAGC belongs -0.0987 E-score.
For the sequence ATTTTAGC, the binding signal was -0.0948 E-score.
The same measure for AAGTATCC: 0.107 E-score.
Consider AGCGTCAT, for which the binding signal was -0.0766 E-score.
Turning to TCACGGGA, the binding signal is -0.0702 E-score.
In the case of ACCGACCA, the binding signal turned out to be 0.051 E-score.
To ATTCTGGG belongs -0.083 E-score; to CTCTTCAG, -0.143 E-score.
The same measure for CGTTAAGC: -0.0682 E-score.
The same measure for GATCAAGA: -0.108 E-score; for GCCGGTAC: -0.0416 E-score.
For the sequence ATCATGAT, the binding signal is -0.164 E-score.
To AGTCCGGG belongs 0.0067 E-score; to CTTCGTTA, -0.369 E-score.
The same measure for ACCTTGCT: 0.0164 E-score.
The same measure for AGATCTAA: -0.129 E-score; for AGTCCACG: -0.166 E-score.
For GAGAACCA, the binding signal is 0.0219 E-score.
The same measure for AATATACA: 0.18 E-score; for AACCAAAA: -0.225 E-score; for ACACATGG: 0.185 E-score.
To CATCGGCC belongs -0.298 E-score.
To AAGCCTAT belongs -0.063 E-score; to ACCCACCT, 0.13 E-score.
As for GGCCCCAA, the binding signal was -0.264 E-score.
The same measure for AGAAGTAT: -0.0733 E-score.
To ACTCCGGG belongs 0.29 E-score; to CACCAGTC, 0.294 E-score.
As to CTATACGA, the binding signal was -0.0257 E-score.
The same measure for CCCGCCCA: 0.14 E-score; for TCGGGCAA: -0.108 E-score.
The same measure for ACAAAGCG: -0.047 E-score; for ACTTTGTC: -0.153 E-score.
The same measure for ATACCGCG: 0.238 E-score.
Regarding GACCCAAC, the binding signal is -0.0491 E-score.
To AACATTTG belongs -0.258 E-score; to GTGAGAGA, -0.0536 E-score.
The same measure for CAAGCTAC: -0.215 E-score; for CGTGACTC: 0.207 E-score; for GAGTCATA: 0.184 E-score.
The same measure for AGTCAAAA: -0.171 E-score; for GATTCCGC: -0.0781 E-score.
Take AAACCAGA: the binding signal is 0.0085 E-score.
On to ATGACGTC, for which the binding signal is -0.254 E-score.
The same measure for GCTGGAGA: -0.245 E-score.
The same measure for AATTCTCT: -0.322 E-score.
As to CCGCGGGA, the binding signal is -0.0491 E-score.
To TATGGGGA belongs 0.0155 E-score; to GCATGAAC, -0.0706 E-score; to ATCGCCTC, -0.181 E-score.
To AAAACTGA belongs -0.0944 E-score; to CGTCAGCA, -0.00873 E-score; to CGTGTCTA, 0.405 E-score.
The same measure for CTAAGGCC: -0.163 E-score; for AAGACCGC: -0.145 E-score; for ATGCTTCC: -0.202 E-score.
For ACGGTCCG, the binding signal is -0.185 E-score.
The same measure for TGATACCA: 0.325 E-score.
The same measure for AGCCAATG: -0.262 E-score.
The same measure for GACAAACC: -0.144 E-score; for CGATGGTC: -0.134 E-score.
Regarding CCGACCAG, the binding signal was 0.161 E-score.
The same measure for AGCTGTAC: -0.152 E-score; for GACTGTAA: -0.00926 E-score.
To CATCATTC belongs -0.19 E-score; to GTGCGCAC, 0.175 E-score; to AACGACGT, -0.175 E-score.
For GCTTTGAA, the binding signal is -0.144 E-score.
The same measure for CAGAGGGC: -0.216 E-score.
To GAGGGTAA belongs 0.0979 E-score.
Consider AGTGGCAG, for which the binding signal is -0.194 E-score.
The same measure for CCAGAAGA: -0.13 E-score; for ACCGATAT: -0.0234 E-score; for CTCTCCCA: -0.217 E-score.
The same measure for CATTGCCC: 0.077 E-score.
The same measure for GGGAGTAC: 0.259 E-score; for CTGCGAGA: -0.0889 E-score.
With CAGACAGC, the binding signal is -0.192 E-score.
